# Measured values published in the supplement of paper PMC8728848.
# Some of the results follow.
# Assays:
# Experiment in all cases: glycan array binding signal (z-score within array); higher = stronger binding
# Conditions in all cases: glycan notation: IUPAC condensed, linker removed
# Neu5Ac(a2-6)Gal = biological target: Neu5Ac(a2-6)Gal
# Procedure, shortened: (§1)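 Arrays were curated from the Consortium for Functional Glycomics database, 3228 in total, and kept only where the protein sequence was available. Binding is expressed as a within-array Z-score. This score was averaged across arrays of the same protein sequence at different concentrations or buffers and across linkers, and negative values can be read as non-binding.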
# [1] = biological target: Neu5Ac(a2-6)Gal(b1-3)GlcNAc(b1-3)[Gal(b1-4)GlcNAc(b1-6)]Gal(b1-4)Glc
# Procedure, shortened: as §1
# Neu5Ac(a2-6)Gal(b1-4)Glc = biological target: Neu5Ac(a2-6)Gal(b1-4)Glc
# Procedure, shortened: as §1
# [2] = biological target: Neu5Ac(a2-6)Gal(b1-4)GlcNAc
# Procedure, shortened: as §1
# [3] = biological target: Neu5Ac(a2-6)Gal(b1-4)GlcNAc(b1-2)Man
# Procedure, shortened: as §1
# [4] = biological target: Neu5Ac(a2-6)Gal(b1-4)GlcNAc(b1-2)Man(a1-3)Man(b1-4)GlcNAc(b1-4)GlcNAc
# Procedure, shortened: as §1
# [5] = biological target: Neu5Ac(a2-6)Gal(b1-4)GlcNAc(b1-2)Man(a1-3)[Gal(b1-4)GlcNAc(b1-2)Man(a1-6)]Man(b1-4)GlcNAc(b1-4)GlcNAc
# Procedure, shortened: as §1
# [6] = biological target: Neu5Ac(a2-6)Gal(b1-4)GlcNAc(b1-2)Man(a1-3)[GlcNAc(b1-2)Man(a1-6)]Man(b1-4)GlcNAc(b1-4)GlcNAc
# Procedure, shortened: as §1
# [7] = biological target: Neu5Ac(a2-6)Gal(b1-4)GlcNAc(b1-2)Man(a1-3)[GlcNAc(b1-4)][Neu5Ac(a2-6)Gal(b1-4)GlcNAc(b1-2)Man(a1-6)]Man(b1-4)GlcNAc(b1-4)GlcNAc
# Procedure, shortened: as §1
# [8] = biological target: Neu5Ac(a2-6)Gal(b1-4)GlcNAc(b1-2)Man(a1-3)[Man(a1-6)]Man(b1-4)GlcNAc(b1-4)GlcNAc
# Procedure, shortened: as §1
# [9] = biological target: Neu5Ac(a2-6)Gal(b1-4)GlcNAc(b1-2)Man(a1-3)[Neu5Ac(a2-3)Gal(b1-4)GlcNAc(b1-2)Man(a1-6)]Man(b1-4)GlcNAc(b1-4)GlcNAc
# Procedure, shortened: as §1
# [10] = biological target: Neu5Ac(a2-6)Gal(b1-4)GlcNAc(b1-2)Man(a1-3)[Neu5Ac(a2-6)Gal(b1-4)GlcNAc(b1-2)Man(a1-6)]Man(b1-4)GlcNAc(b1-4)GlcNAc
# Procedure, shortened: as §1
# [11] = biological target: Neu5Ac(a2-6)Gal(b1-4)GlcNAc(b1-2)Man(a1-3)[Neu5Ac(a2-6)Gal(b1-4)GlcNAc(b1-2)Man(a1-6)]Man(b1-4)GlcNAc(b1-4)[Fuc(a1-6)]GlcNAc
# Procedure, shortened: as §1
# [12] = biological target: Neu5Ac(a2-6)Gal(b1-4)GlcNAc(b1-2)Man(a1-6)Man(b1-4)GlcNAc(b1-4)GlcNAc
# Procedure, shortened: as §1
# [13] = biological target: Neu5Ac(a2-6)Gal(b1-4)GlcNAc(b1-2)Man(a1-6)[Gal(b1-4)GlcNAc(b1-2)Man(a1-3)]Man(b1-4)GlcNAc(b1-4)GlcNAc
# Procedure, shortened: as §1
# [14] = biological target: Neu5Ac(a2-6)Gal(b1-4)GlcNAc(b1-2)Man(a1-6)[GlcNAc(b1-2)Man(a1-3)]Man(b1-4)GlcNAc(b1-4)GlcNAc
# Procedure, shortened: as §1
# [15] = biological target: Neu5Ac(a2-6)Gal(b1-4)GlcNAc(b1-2)Man(a1-6)[Man(a1-3)]Man(b1-4)GlcNAc(b1-4)GlcNAc
# Procedure, shortened: as §1
# [16] = biological target: Neu5Ac(a2-6)Gal(b1-4)GlcNAc(b1-2)[Neu5Ac(a2-6)Gal(b1-4)GlcNAc(b1-4)]Man(a1-3)[GlcNAc(b1-4)][Neu5Ac(a2-6)Gal(b1-4)GlcNAc(b1-2)[Neu5Ac(a2-6)Gal(b1-4)GlcNAc(b1-6)]Man(a1-6)]Man(b1-4)GlcNAc(b1-4)GlcNAc
# Procedure, shortened: as §1
# [17] = biological target: Neu5Ac(a2-6)Gal(b1-4)GlcNAc(b1-2)[Neu5Ac(a2-6)Gal(b1-4)GlcNAc(b1-4)]Man(a1-3)[GlcNAc(b1-4)][Neu5Ac(a2-6)Gal(b1-4)GlcNAc(b1-4)Man(a1-6)]Man(b1-4)GlcNAc(b1-4)GlcNAc
# Procedure, shortened: as §1
# [18] = biological target: Neu5Ac(a2-6)Gal(b1-4)GlcNAc(b1-2)[Neu5Ac(a2-6)Gal(b1-4)GlcNAc(b1-6)]Man(a1-6)[Neu5Ac(a2-6)Gal(b1-4)GlcNAc(b1-2)Man(a1-3)][GlcNAc(b1-4)]Man(b1-4)GlcNAc(b1-4)GlcNAc
# Procedure, shortened: as §1
# [19] = biological target: Neu5Ac(a2-6)Gal(b1-4)GlcNAc(b1-3)Gal(b1-3)GlcNAc
# Procedure, shortened: as §1
# [20] = biological target: Neu5Ac(a2-6)Gal(b1-4)GlcNAc(b1-3)Gal(b1-4)GlcNAc
# Procedure, shortened: as §1
# [21] = biological target: Neu5Ac(a2-6)Gal(b1-4)GlcNAc(b1-3)Gal(b1-4)GlcNAc(b1-2)Man(a1-3)[Neu5Ac(a2-6)Gal(b1-4)GlcNAc(b1-3)Gal(b1-4)GlcNAc(b1-2)Man(a1-6)]GalNAc
# Procedure, shortened: as §1
# [22] = biological target: Neu5Ac(a2-6)Gal(b1-4)GlcNAc(b1-3)Gal(b1-4)GlcNAc(b1-3)Gal(b1-4)GlcNAc
# Procedure, shortened: as §1
# [23] = biological target: Neu5Ac(a2-6)Gal(b1-4)GlcNAc(b1-3)Gal(b1-4)GlcNAc(b1-3)Gal(b1-4)GlcNAc(b1-2)Man(a1-3)[Neu5Ac(a2-6)Gal(b1-4)GlcNAc(b1-3)Gal(b1-4)GlcNAc(b1-3)Gal(b1-4)GlcNAc(b1-2)Man(a1-6)]GalNAc
# Procedure, shortened: as §1
# [24] = biological target: Neu5Ac(a2-6)Gal(b1-4)GlcNAc(b1-3)Gal(b1-4)GlcNAc(b1-3)GalNAc
# Procedure, shortened: as §1
# [25] = biological target: Neu5Ac(a2-6)Gal(b1-4)GlcNAc(b1-3)Gal(b1-4)GlcNAc(b1-3)[Neu5Ac(a2-6)Gal(b1-4)GlcNAc(b1-3)Gal(b1-4)GlcNAc(b1-6)]GalNAc
# Procedure, shortened: as §1
# [26] = biological target: Neu5Ac(a2-6)Gal(b1-4)GlcNAc(b1-3)Gal(b1-4)GlcNAc(b1-6)[Gal(b1-3)]GalNAc
# Procedure, shortened: as §1
# [27] = biological target: Neu5Ac(a2-6)Gal(b1-4)GlcNAc(b1-3)Gal(b1-4)[Fuc(a1-3)]GlcNAc(b1-3)Gal(b1-4)[Fuc(a1-3)]GlcNAc
# Procedure, shortened: as §1
# [28] = biological target: Neu5Ac(a2-6)Gal(b1-4)GlcNAc(b1-3)GalNAc
# Procedure, shortened: as §1
# [29] = biological target: Neu5Ac(a2-6)Gal(b1-4)GlcNAc(b1-3)[Neu5Ac(a2-6)Gal(b1-4)GlcNAc(b1-6)]GalNAc
# Procedure, shortened: as §1
# [30] = biological target: Neu5Ac(a2-6)Gal(b1-4)GlcNAc(b1-6)GalNAc
# Procedure, shortened: as §1
# [31] = biological target: Neu5Ac(a2-6)Gal(b1-4)GlcNAc(b1-6)[Gal(b1-3)GlcNAc(b1-3)]Gal(b1-4)Glc
# Procedure, shortened: as §1
# [32] = biological target: Neu5Ac(a2-6)Gal(b1-4)GlcNAc(b1-6)[Gal(b1-3)]GalNAc
# Procedure, shortened: as §1
# [33] = biological target: Neu5Ac(a2-6)Gal(b1-4)GlcNAc6S
# Procedure, shortened: as §1
# Neu5Ac(a2-6)GalNAc = biological target: Neu5Ac(a2-6)GalNAc
# Procedure, shortened: as §1
# [34] = biological target: Neu5Ac(a2-6)GalNAc(b1-4)GlcNAc
# Procedure, shortened: as §1
# [35] = biological target: Neu5Ac(a2-6)GalNAc(b1-4)GlcNAc6S
# Procedure, shortened: as §1
binder,measurement,setting,value
Epa1to9 (Candida glabrata) (protein) MGSSHHHHHHSSGLVPRGSHMTSSNDISLASKDPTTFPLGCSPDITTPKKGLSMELYSYDFRKKGSYPCWDAAYLDPNYPRTGYKSHRLLAKVDGVTGNINFYYHATKGCTPQLGHLPASYNYPKPLTMTNFTMLLYGYFRPKVTGFHTFTISADDLLFVNFGAGNAFDCCRRDSSADHFGNYQAYAIWGSKTAKDELTVHLDAGVYYPIRLFYNNRDYHGALSFTFKTESNENTVSDFSEYFFSLDDTEEGCPGLISYD,glycan array binding signal (z-score),Neu5Ac(a2-6)Gal,-0.254
same,glycan array binding signal (z-score),[1],0.001
same,glycan array binding signal (z-score),Neu5Ac(a2-6)Gal(b1-4)Glc,-0.309
same,glycan array binding signal (z-score),[2],-0.273
same,glycan array binding signal (z-score),[3],-0.348
same,glycan array binding signal (z-score),[4],-0.345
same,glycan array binding signal (z-score),[5],-0.246
same,glycan array binding signal (z-score),[6],-0.32
same,glycan array binding signal (z-score),[7],-0.334
same,glycan array binding signal (z-score),[8],-0.321
same,glycan array binding signal (z-score),[9],-0.328
same,glycan array binding signal (z-score),[10],-0.257
same,glycan array binding signal (z-score),[11],-0.335
same,glycan array binding signal (z-score),[12],-0.319
same,glycan array binding signal (z-score),[13],-0.145
same,glycan array binding signal (z-score),[14],-0.34
same,glycan array binding signal (z-score),[15],-0.342
same,glycan array binding signal (z-score),[16],-0.296
same,glycan array binding signal (z-score),[17],-0.321
same,glycan array binding signal (z-score),[18],-0.317
same,glycan array binding signal (z-score),[19],-0.295
same,glycan array binding signal (z-score),[20],-0.313
same,glycan array binding signal (z-score),[21],-0.268
same,glycan array binding signal (z-score),[22],-0.466
same,glycan array binding signal (z-score),[23],-0.309
same,glycan array binding signal (z-score),[24],-0.325
same,glycan array binding signal (z-score),[25],-0.317
same,glycan array binding signal (z-score),[26],0.291
same,glycan array binding signal (z-score),[27],-0.298
same,glycan array binding signal (z-score),[28],-0.289
same,glycan array binding signal (z-score),[29],-0.283
same,glycan array binding signal (z-score),[30],-0.336
same,glycan array binding signal (z-score),[31],-0.192
same,glycan array binding signal (z-score),[32],0.341
same,glycan array binding signal (z-score),[33],-0.328
same,glycan array binding signal (z-score),Neu5Ac(a2-6)GalNAc,-0.343
same,glycan array binding signal (z-score),[34],-0.356
same,glycan array binding signal (z-score),[35],-0.352
